In the supplement of paper PMC3334620:
The full ranking holds about 33,000 sequences; the median of “E-score (-0.5 to 0.5)” is about -0.035, and the highest 2% start at about 0.34. The list shows a part of the results.

Each sequence was assayed against T1, Mot3 (UniProt P54785) (assay: PBM E-score (8-mer binding enrichment) (E-score (-0.5 to 0.5)); higher = stronger / more preferred TF binding; most listed sequences are background and not binding sites). Conditions: protein concentration: 200 nM; construct: GST-full length.
T1 sequence: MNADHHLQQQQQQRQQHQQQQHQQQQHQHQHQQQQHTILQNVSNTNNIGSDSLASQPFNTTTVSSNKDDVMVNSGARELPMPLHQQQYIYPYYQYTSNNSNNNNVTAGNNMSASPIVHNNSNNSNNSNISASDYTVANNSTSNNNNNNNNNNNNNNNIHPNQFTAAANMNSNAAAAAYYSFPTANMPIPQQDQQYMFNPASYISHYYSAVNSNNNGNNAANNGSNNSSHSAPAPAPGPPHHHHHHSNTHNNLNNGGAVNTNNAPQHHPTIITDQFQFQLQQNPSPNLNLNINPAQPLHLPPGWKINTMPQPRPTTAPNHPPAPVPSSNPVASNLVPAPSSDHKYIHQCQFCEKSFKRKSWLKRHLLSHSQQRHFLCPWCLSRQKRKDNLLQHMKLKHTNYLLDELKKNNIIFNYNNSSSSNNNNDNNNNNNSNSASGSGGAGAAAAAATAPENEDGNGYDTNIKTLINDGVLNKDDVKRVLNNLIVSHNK
Outline: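 GST-tagged yeast TFs (full-length or DNA-binding domain) were made by PURExpress in vitro transcription/translation and applied at about 100-200 nM to universal all-10-mer Agilent arrays. The arrays were made double-stranded by primer extension, on fresh or once-stripped slides. Bound protein was detected with fluorescent anti-GST, and scans were normalised with masliner. Each ungapped eight-base word, pooled with its reverse complement, received an E-score (modified Wilcoxon-Mann-Whitney statistic) from the Universal PBM Analysis Suite.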

Sequence	PBM E-score
AGCTCAAG	-0.242
ACTTGTAT	0.173
GGGCAACC	-0.175
ACACTATG	0.0427
ATCAATCC	-0.105
ACGAGGTA	-0.00321
AAATATTA	0.234
CCGTCGAA	-0.24
ATAGTCCA	-0.206
AGCATCAG	-0.172
CCCCATAG	-0.123
GTGGACAC	-0.0127
CCGATTGC	0.123
CATATTTC	0.0175
CGTTCCCA	-0.192
CAACAATG	0.199
GGGGTGAC	-0.0631
CTGAGTTC	0.0849
CTCACTCC	-0.225
CTAAGTCC	-0.191
GCACGCGA	0.0082
CCGCAAAC	-0.0792
TACCCAAA	0.11
CTGTTCTC	0.0137

Sequence	PBM E-score
CGCGAACC	0.0234
ATTCCTGC	-0.0225
CGACAAAG	0.0929
AAGTTTTC	0.0147
GCAAACAC	0.117
CAAATCTA	0.0716
GAGTCTCC	-0.362
CCCTCGGC	-0.272
CAGAACGC	-0.136
GAACCCGA	-0.0111
AAAAGAAA	0.129
GAATGAAC	0.0408
AGGTAACA	0.357
GCAATCCC	-0.257
AAGCAGCG	0.136
ACAGTCGA	-0.188
GCACTACC	-0.156
ATAAGACA	0.0934
TGGGAACA	-0.0762
CAACTTCA	0.0337
AAAGGGCA	0.041
AGTTCTGA	-0.093
CGCGTATC	0.171
AGGTAATC	0.344

Sequence	PBM E-score
ATTCCGGG	-0.188
AGCCCACG	-0.19
ACAACAGC	0.0671
CTGCTTAC	-0.00061
GTGTCTAA	0.21
ACGACTTG	0.00588
AAAGTCCT	-0.197
ACGCAAAG	0.046
AACGTGGA	0.00783
CGACGATA	-0.00683
AAATGCAA	0.00481
AGACGAAG	-0.0234
GTCCTATA	-0.0781
CATGAAGA	-0.0437
AAGGGAGT	-0.193
ATACCCCA	-0.0898
CTTTCTAA	0.0987
ACTTACTA	0.0175
CGACTCAG	-0.219
AAATCCCT	-0.0149
ACCCCACC	-0.228
CAAGATCA	0.0168
AGGATCAA	0.0224
ATAATCTG	0.0266

Sequence	PBM E-score
AATACGAC	0.0314
AACATTCA	0.0411
GGCGGCCC	-0.295
CCATTAGG	-0.0478
GTCGTTGA	0.0555
CGAACGAG	-0.0675
CGAGAGAG	-0.145
CCGGATAC	-0.1
AATACATC	0.238
GGCCATAA	-0.215
AGCGGCTC	-0.26
AATCTGGA	-0.0335
CGGACCGA	-0.122
CCTTAAAC	0.0953
CATTATTA	0.0961
ACCTCGAG	-0.129
CACCGCGG	-0.204
ACCTCACA	-0.0606
CCTATGAA	0.00027
GGATACAA	0.262
CAGCCCCA	-0.0937
GCAAGGTA	0.249
